From the supplement of paper PMC4967469
pIC50: −log10 of the molar value. By IC50 is meant the dose at which the fit gives 50% viability; where the fit passes the top or lowest dose, that dose stands as a limit. AUC, from the same fit, is the share of area under the viability curve across the 256-fold dose range; values near 1 show little effect. For part of these data: Any top dose called inferred is not printed in the source and was worked back from the curve model.

Legend:
Assay in all cases: Viability of human cancer cell lines after 72 h of drug (GDSC screen)
SL 0101-1 = compound: CC(=O)O[C@@H]1[C@@H](OC(C)=O)[C@@H](O)[C@H](Oc2c(-c3ccc(O)cc3)oc3cc(O)cc(O)c3c2=O)O[C@H]1C [SL 0101-1]; settings: top dose 10 µM; top dose inferred
Description: (§1)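 Human cancer cell lines in 384-well plates, medium with 10% serum, drug for 72 h over a 256-fold dose range (nine 2-fold or five 4-fold steps up to the top dose). Adherent lines were fixed and stained with the nucleic acid dye Syto60, suspension lines read with resazurin; signal relative to control wells, capped at 0 and 100%. One two-parameter sigmoid per drug and line, fitted in a mixed model over all curves with the slope shared within a line.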

Temsirolimus = compound: CO[C@H]1C[C@@H]2CC[C@@H](C)[C@@](O)(O2)C(=O)C(=O)N2CCCC[C@H]2C(=O)O[C@H]([C@H](C)C[C@@H]2CC[C@@H](OC(=O)C(C)(CO)CO)[C@H](OC)C2)CC(=O)[C@H](C)/C=C(\C)[C@@H](O)[C@@H](OC)C(=O)[C@H](C)C[C@H](C)/C=C/C=C/C=C/1C [Temsirolimus]; settings: top dose 0.2 µM
Description: as §1

XMD15-27 = compound: C=CC(=O)Nc1ccc(C(=O)c2sc(Nc3ccc(N4CCN(C)CC4)cc3OC)nc2N)cc1 [XMD15-27]; settings: top dose 10.24 µM; top dose inferred
Description: as §1

Row | Cell Line | AUC (SL 0101-1) | pIC50 (SL 0101-1) | AUC (Temsirolimus) | pIC50 (Temsirolimus) | AUC (XMD15-27) | pIC50 (XMD15-27)
1 | HEC-1 (endometrium, adherent) | 0.985 | < 5.00 | 0.869 | 6.76 | 0.989 | < 4.99
2 | Hs939-T (melanoma, adherent) | 0.986 | < 5.00 | 0.728 | 7.23 | 0.986 | < 4.99
3 | NCI-H2172 (non-small cell lung carcinoma, adherent) | 0.98 | < 5.00 | 0.945 | < 6.70 | 0.982 | < 4.99
4 | MOLT-13 (T-cell lymphoblastic leukaemia, suspension) | 0.985 | < 5.00 | 0.987 | < 6.70 | 0.95 | < 4.99
5 | FLO-1 (oesophagus, adherent) | 0.977 | < 5.00 | 0.852 | < 6.70 | 0.942 | < 4.99
6 | MDA-MB-415 (breast, adherent) | 0.983 | < 5.00 | 0.603 | 7.58 | 0.983 | < 4.99
7 | COLO-678 (large intestine, semi-adherent) | 0.979 | < 5.00 | 0.967 | < 6.70 | 0.983 | < 4.99
8 | HuO-3N1 (osteosarcoma, adherent) | 0.974 | < 5.00 | 0.82 | 6.78 | 0.979 | < 4.99
9 | LU-165 (small cell lung carcinoma, suspension) | 0.982 | < 5.00 | 0.972 | < 6.70 | 0.986 | < 4.99
10 | H3118 (head and neck, adherent) | 0.981 | < 5.00 | 0.795 | 6.99 | 0.969 | < 4.99
11 | PSN1 (pancreas, adherent) | 0.97 | < 5.00 | 0.9 | 6.73 | 0.986 | < 4.99
12 | IA-LM (large cell lung carcinoma, adherent) | 0.973 | < 5.00 | 0.86 | < 6.70 | 0.983 | < 4.99
13 | RXF393 (kidney, adherent) | 0.978 | < 5.00 | 0.559 | 7.72 | 0.909 | < 4.99
14 | LB373-MEL-D (melanoma, adherent) | 0.99 | < 5.00 | 0.953 | < 6.70 | 0.99 | < 4.99
15 | SUP-M2 (anaplastic large cell lymphoma, suspension) | 0.994 | < 5.00 | 0.898 | 6.84 | 0.729 | 5.63
16 | 23132-87 (stomach, adherent) | 0.986 | < 5.00 | 0.725 | 7.25 | 0.986 | < 4.99
17 | NAMALWA (Burkitt lymphoma, suspension) | 0.988 | < 5.00 | 0.855 | 6.92 | 0.964 | < 4.99
18 | LS-1034 (large intestine, adherent) | 0.978 | < 5.00 | 0.948 | < 6.70 | 0.986 | < 4.99
19 | HL-60 (acute myeloid leukaemia, suspension) | 0.982 | < 5.00 | 0.884 | 6.75 | 0.986 | < 4.99
20 | QIMR-WIL (acute myeloid leukaemia, suspension) | 0.987 | < 5.00 | 0.737 | 7.24 | 0.93 | < 4.99
21 | NCI-H2291 (lung adenocarcinoma, adherent) | 0.964 | < 5.00 | 0.899 | < 6.70 | 0.984 | < 4.99
22 | MDA-MB-436 (breast, adherent) | 0.984 | < 5.00 | 0.773 | 7.00 | 0.984 | < 4.99
23 | GDM-1 (acute myeloid leukaemia, suspension) | 0.987 | < 5.00 | 0.986 | < 6.70 | 0.911 | < 4.99
24 | MDA-MB-330 (breast, adherent) | 0.986 | < 5.00 | 0.551 | 7.76 | 0.986 | < 4.99

Row | Cell Line | AUC (SL 0101-1) | pIC50 (SL 0101-1) | AUC (Temsirolimus) | pIC50 (Temsirolimus) | AUC (XMD15-27) | pIC50 (XMD15-27)
25 | HH (T-cell leukaemia, suspension) | 0.942 | < 5.00 | 0.53 | 7.81 | 0.932 | < 4.99
26 | JHOS-3 (ovary, adherent) | 0.984 | < 5.00 | 0.9 | < 6.70 | 0.984 | < 4.99
27 | no-11 (glioma, adherent) | 0.969 | < 5.00 | 0.886 | < 6.70 | 0.97 | < 4.99
28 | GCIY (stomach, adherent) | 0.977 | < 5.00 | 0.864 | < 6.70 | 0.984 | < 4.99
29 | NCI-H1836 (small cell lung carcinoma, suspension) | 0.988 | < 5.00 | 0.979 | < 6.70 | 0.988 | < 4.99
30 | COLO-800 (melanoma, adherent) | 0.987 | < 5.00 | 0.781 | 7.10 | 0.979 | < 4.99
31 | RERF-LC-Sq1 (lung squamous cell carcinoma, adherent) | 0.975 | < 5.00 | 0.735 | 7.08 | 0.972 | < 4.99
32 | RVH-421 (melanoma, adherent) | 0.976 | < 5.00 | 0.73 | 7.13 | 0.949 | < 4.99
33 | KYM-1 (rhabdomyosarcoma, adherent) | 0.991 | < 5.00 | 0.637 | 7.55 | 0.991 | < 4.99
34 | SW1573 (lung adenocarcinoma, adherent) | 0.977 | < 5.00 | 0.775 | 6.97 | 0.981 | < 4.99
35 | T98G (glioma, adherent) | 0.989 | < 5.00 | 0.546 | 7.78 | 0.989 | < 4.99
36 | OVMIU (ovary, adherent) | 0.95 | < 5.00 | 0.963 | < 6.70 | 0.976 | < 4.99
37 | NCI-H1694 (small cell lung carcinoma, suspension) | 0.978 | < 5.00 | 0.911 | < 6.70 | 0.978 | < 4.99
38 | LN-229 (glioma, adherent) | 0.984 | < 5.00 | 0.865 | 6.75 | 0.988 | < 4.99
39 | NCI-H1048 (small cell lung carcinoma, adherent) | 0.983 | < 5.00 | 0.915 | < 6.70 | 0.985 | < 4.99
40 | NCI-H1781 (lung adenocarcinoma, adherent) | 0.989 | < 5.00 | 0.906 | < 6.70 | 0.989 | < 4.99
41 | EBC-1 (lung squamous cell carcinoma, adherent) | 0.978 | < 5.00 | 0.686 | 7.35 | 0.981 | < 4.99
42 | SNB75 (glioma, adherent) | 0.965 | < 5.00 | 0.814 | 6.74 | 0.974 | < 4.99
43 | D-247MG (glioma, adherent) | 0.975 | < 5.00 | 0.729 | 7.14 | 0.815 | 5.07
44 | CMK (acute myeloid leukaemia, suspension) | 0.985 | < 5.00 | 0.937 | < 6.70 | 0.948 | < 4.99
45 | U-698-M (B-cell leukaemia, suspension) | 0.987 | < 5.00 | 0.539 | 7.80 | 0.984 | < 4.99
46 | HDQ-P1 (breast, adherent) | 0.969 | < 5.00 | 0.974 | < 6.70 | 0.982 | < 4.99
47 | OE21 (oesophagus, adherent) | 0.969 | < 5.00 | 0.645 | 7.43 | 0.977 | < 4.99
48 | HGC-27 (stomach, adherent) | 0.972 | < 5.00 | 0.431 | 8.08 | 0.988 | < 4.99

Row | Cell Line | AUC (SL 0101-1) | pIC50 (SL 0101-1) | AUC (Temsirolimus) | pIC50 (Temsirolimus) | AUC (XMD15-27) | pIC50 (XMD15-27)
49 | LCLC-103H (large cell lung carcinoma, adherent) | 0.975 | < 5.00 | 0.919 | < 6.70 | 0.981 | < 4.99
50 | NB5 (neuroblastoma, adherent) | 0.978 | < 5.00 | 0.738 | 7.22 | 0.986 | < 4.99
51 | FADU (head and neck, adherent) | 0.979 | < 5.00 | 0.885 | < 6.70 | 0.982 | < 4.99
52 | CADO-ES1 (Ewing sarcoma, suspension) | 0.972 | < 5.00 | 0.942 | < 6.70 | 0.963 | < 4.99
53 | BB30-HNC (head and neck, adherent) | 0.968 | < 5.00 | 0.711 | 7.32 | 0.985 | < 4.99
54 | JHU-022 (head and neck, adherent) | 0.963 | < 5.00 | 0.622 | 7.53 | 0.98 | < 4.99
55 | MHH-NB-11 (neuroblastoma, adherent) | 0.982 | < 5.00 | 0.965 | < 6.70 | 0.985 | < 4.99
56 | CAS-1 (glioma, adherent) | 0.979 | < 5.00 | 0.86 | < 6.70 | 0.982 | < 4.99
57 | SJSA-1 (bone, adherent) | 0.98 | < 5.00 | 0.744 | 7.16 | 0.984 | < 4.99
58 | NKM-1 (acute myeloid leukaemia, suspension) | 0.982 | < 5.00 | 0.832 | 6.88 | 0.89 | < 4.99
59 | PF-382 (T-cell lymphoblastic leukaemia, suspension) | 0.989 | < 5.00 | 0.866 | 6.85 | 0.921 | < 4.99
60 | ESO51 (oesophagus, semi-adherent) | 0.939 | < 5.00 | 0.754 | 7.03 | 0.963 | < 4.99
61 | SW962 (urogenital system, adherent) | 0.951 | < 5.00 | 0.487 | 7.94 | 0.978 | < 4.99
62 | LB1047-RCC (kidney, adherent) | 0.983 | < 5.00 | 0.689 | 7.34 | 0.975 | < 4.99
63 | COR-L23 (large cell lung carcinoma, adherent) | 0.944 | < 5.00 | 0.903 | < 6.70 | 0.976 | < 4.99
64 | CAL-78 (chondrosarcoma, adherent) | 0.986 | < 5.00 | 0.892 | < 6.70 | 0.986 | < 4.99
65 | JVM-3 (lymphoid neoplasm, suspension) | 0.965 | < 5.00 | 0.595 | 7.64 | 0.987 | < 4.99
66 | D-542MG (glioma, adherent) | 0.984 | < 5.00 | 0.83 | 6.78 | 0.984 | < 4.99
67 | EB-3 (Burkitt lymphoma, suspension) | 0.984 | < 5.00 | 0.948 | < 6.70 | 0.98 | < 4.99
68 | 647-V (bladder, adherent) | 0.982 | < 5.00 | 0.778 | 7.09 | 0.983 | < 4.99
69 | YKG-1 (glioma, adherent) | 0.932 | < 5.00 | 0.787 | 7.05 | 0.982 | < 4.99
70 | OV-56 (ovary, adherent) | 0.988 | < 5.00 | 0.594 | 7.65 | 0.988 | < 4.99
71 | JHOS-2 (ovary, adherent) | 0.974 | < 5.00 | 0.736 | 7.18 | 0.977 | < 4.99
